Assay results as given in PubChem BioAssay AID1794741 (DTP/NCI, 2022).
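How to read the values: 0–100, growth inhibition (40 = 60% inhibited); 0, no net growth; -100 to 0, cell death (-40 = 40% of starting cells died; -100 = all dead).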 Certain results were filed several times, with different values. They are shown here; other results are not. The source may hold further records. The screen tested this drug many times, at its own concentration, as given; one value stands for one run. Brackets with × count equal records among those shown.

Test system: DLD-1 colon
Assay: NCI-60 one-dose screen, 48 h (100 = growth as untreated, 0 = no growth, -100 = all killed)
Settings: 2.5 mM
Method: Growth inhibition of the DLD-1 human tumor cell line is measured as a screen for anti-cancer activity. Cells are grown in 96 well plates and exposed to the test compound for 48 hours. Compounds are tested at a single concentration, which is 10^-5 M for most compounds. The reported endpoint is percent growth (GI% or GIPRCNT), where numbers from 0 - 100% represent growth inhibition, and numbers from -100% - 0 represent cell death. For example, a value of 40 represents 60% growth inhibition. A value of 0 means no net growth occurred over the course of the experiment. A value of -40 indicates 40% of cells at the beginning of the experiment died by the end of the experiment. A value of -100 means all cells are dead at the end of the experiment.
NCI-60 Human Tumor Cell Lines Screen was performed using the standard one-dose NCI protocol, which is described in more detail at https://dtp.cancer.gov/discovery_development/nci-60/default.htm.
Compounds with GIPRCNT values below 10 were considered active. Activity score was based on GIPRCNT using the following formula: […]
Score is 0 for GIPRCNT values of 100 or above, 50 for GIPRCNT values of 0, and 100 for GIPRCNT values of -100.

In the case of `O=c1[nH]cc(F)c(=O)[nH]1`, the growth (runs of 1991) is reported as 52.1, 0.309, 12.6, 16.3, -25.8, 12.3, 5.56, 6.33, 13, 13.3, 5.46, 12.2, 15.8% and the growth (runs of 1992) is reported as -43.3, -51.3, 3.46, 13.4 (2×), 11.7, 15.1, 7.29, 9.66, 21.9 (3×), 12, 18.5, 15.5, 16.4, 16.2, 24.1, 14.9, 17.9, 8.29, 14.6 (2×), 22.6 (2×), 12.4, 12.6, 96.5, 10.3 (2×), 29.7, 15.2 (2×), 15.9 (2×), 8.7, 10.6, 13 (3×), -7.8, 9.3, 13.9, 15.7, 9.47, 7.13, 11.5, 10.7 (2×), 14.5, 11.8, 14.1, 19, 17, 8.24, 0.952, -59.2, -59.4, -21.6, 9.48, 20.2, 17.1, 20.7, -2.46, 18.4, 23.8, 10.8, 3.34, 9.09, 9.77, 28.3, 8.46, 6.14, 8.43, 21.3, 12.5, 12.2, 3.61, 7.15, 24.4, 17.6, 5.93, 14.7, 14.3, 9.97, 41, 17.5%.
